# Measured values published in PubChem BioAssay AID1508642 (National Center for Advancing Translational Sciences (NCATS), 2021).
# Among all 43,000 compounds or so, about 200 (0.47%) were called active. About 12% were inconclusive and are not listed. The call rests on the fitted dose curve; in most records, active means well fitted cell-killing curve with a large enough effect; inconclusive means small, poorly fitted or top-dose-only effect, or effect the other way; inactive means flat fitted curve, though single readings scatter. Some of the results follow.
# Test: Cell viability qHTS assay in S16 Pmp22-F2sN cells; further: nearly all actives have a fitted effect of over 65% in size
# Conditions: S16 Pmp22-F2sN Schwann cells (luciferase reporters placed in the Pmp22 gene) viability, CellTiter-Glo, 24 h; series mostly up to 57.5 µM; activity change, negative = cytotoxicity: at the top concentration
# Summary of the method: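 Rat S16 Schwann reporter line, 24 h treatment with library compounds delivered at 23 nL per well. Cell viability by CellTiter-Glo luminescence.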
# On the % scale 0 is the no-effect control and ±100 the full control effect.
row,SMILES,"activity change, negative = cytotoxicity"
1,Cc1ccc2nc(/C(C#N)=C/c3ccc(-c4ccc(C(=O)OC(C)C)cc4)o3)[nH]c2c1,inactive: -16.4%
2,Fc1ccc(-c2nnn3c2nc(NCc2ccccc2)c2ccccc23)cc1,inactive: 3.85%
3,CCOc1cc(C(=O)Nc2ccc(-c3nnc4n3CCCCC4)cc2)cc(OCC)c1OCC,inactive: -9.38%
4,COC(=O)c1cccc(CN2C(=O)SC(Nc3ccccc3C)C2=O)c1 (stereo unspecified),inactive: -7.47%
5,CCc1ccc(CNC(=O)C2CCN(C(=O)c3ccc(-n4c(C)cc5ccccc54)s3)CC2)cc1,inactive: -28.5%
6,COc1ccc(-n2c(=O)c3c4c(sc3n(CC(=O)C(C)(C)C)c2=O)CCCC4)c(OC)c1,inactive: -2%
7,CN(C(=O)CSc1nc2ccc(NC(=O)c3cccs3)cc2s1)c1ccccc1,inactive: -23.6%
8,CCOc1ccc(NC(=O)CSc2nccn2C2CCCC2)cc1,inactive: -1.27%
9,COc1ccc(Cl)cc1C(=O)NCC(c1ccc(N(C)C)cc1)N1CCCC1 (stereo unspecified),inactive: 1.95%
10,O=C(Cn1c(-c2cccs2)cc2cc(Cl)ccc21)N1CCCCC1,inactive: -2.69%
11,Cc1ccc(NC(=O)C2CCCN(S(=O)(=O)c3ccc4c(c3)CCCC(=O)N4)C2)cc1N(C)C (stereo unspecified),inactive: -0.583%
12,Cc1ccc(C)c(NC(=O)Cn2c(=O)n(CCCS(=O)(=O)C3CCCCC3)c(=O)c3ccccc32)c1,inactive: 1.98%
13,Cc1ccc(-c2ccc(CCC(=O)O)n2-c2ccc(C)c(Cl)c2)cc1,inactive: -1.64%
14,CCOC(=O)c1cccc(NC(=O)c2cc3c(Cl)nc4ccc(C)cc4c3s2)c1,inactive: 8.84%
15,COc1ccc(-n2cc(-c3ccccc3)c3c(SC(C)C(C)=O)ncnc32)cc1 (stereo unspecified),inactive: 6.72%
16,COc1ccc(NC(=O)C(=O)NCCc2ccccc2)cc1OC,inactive: -2.99%
17,COc1cccc(C(=O)Nc2ccccc2C(=O)OCc2cc(=O)n3nc(C)sc3n2)c1,inactive: 3.64%
18,COc1ccccc1CNC(=O)CSc1ncc2c(n1)-c1ccccc1N(Cc1ccc(C)cc1)S2(=O)=O,inactive: 15.2%
19,COc1ccc(-c2noc(C3CC(=O)N(c4ccc(C)c(F)c4)C3)n2)c(OC)c1 (stereo unspecified),inactive: -0.301%
20,CCN1CCN(C(=O)c2ccc3c(c2)N(Cc2cccc(Cl)c2)C(=O)c2ccccc2S3(=O)=O)CC1,inactive: -1.88%
21,CCc1nnc(SCc2ccc(F)cc2Cl)c2cc3sccc3n12,inactive: 18.7%

row,SMILES,"activity change, negative = cytotoxicity"
1,Cc1ccc(C)c(NC(=O)C(C)n2c(=O)cc(C(F)(F)F)c3c(C)nn(C)c32)c1 (stereo unspecified),inactive: 8.2%
2,CC1CCC(NC(=O)c2ccc3c(c2)N(Cc2cccc(F)c2)C(=O)c2ccccc2S3)CC1 (stereo unspecified),inactive: -5.68%
3,CCc1ccc(CNC(=O)c2ccc3c(c2)nc2n3CCOC2)cc1,inactive: 10.9%
4,Fc1ccc(-c2cc(-c3nc(-c4cccc(Cl)c4)no3)[nH]n2)cc1,inactive: 2.09%
5,Cc1ccc(NC(=O)C(=O)NCC(c2cccnc2)N2CCN(C)CC2)cc1C (stereo unspecified),inactive: -2.81%
6,Cc1ccc(OCC(=O)Nc2ccc(C(=O)OCc3cc(=O)n4nc(C5CC5)sc4n3)cc2)cc1,inactive: 25.5%
7,COc1ccc(NC(=O)c2oc3c(c2C)-c2nn(Cc4c(F)cccc4Cl)cc2CC3)c(OC)c1,inactive: 1.36%
8,COc1ccc(CNc2nc3c(S(=O)(=O)c4ccccc4)nnn3c3ccc(Cl)cc23)cc1,inactive: -1.29%
9,CCOc1ccc(Nc2oc(/C=C/c3ccc(F)cc3)nc2C#N)cc1,inactive: -0.614%
10,CCOC(=O)c1ccccc1NC(=O)CSc1ccc(-c2sc(-c3ccccc3)nc2C)nn1,inactive: -0.0607%
11,Cc1cc(C)n(-c2nc3ccccc3nc2Nc2cccc(C(F)(F)F)c2)n1,inactive: 4.71%
12,COc1ccc(OC)c(-c2nc(Nc3ccccc3C)sc2CC(=O)O)c1,inactive: -21.9%
13,COc1ccc(C2C(C(=O)Nc3ccccc3)=C(C)Nc3nc(-c4ccccc4)nn32)cc1OC (stereo unspecified),inactive: 10.7%
14,O=C1CCSC2(C(=O)N(Cc3ccc(F)cc3)c3ccccc32)N1c1ccccc1 (stereo unspecified),inactive: -1.97%
15,Fc1ccccc1CNCCCSc1nnnn1-c1ccccc1,inactive: -1.44%
16,Cc1cc(C)c2c(CC(=O)Nc3nnc(C(C)C)s3)coc2c1,inactive: 2.24%
17,COc1ccc(-c2cc(C(C)=O)c(C)n2CCC(=O)Nc2cc(C)ccc2OC)cc1,inactive: -5.49%
18,O=c1c2ccccc2n(Cc2cccc(Cl)c2)c(=O)n1CCc1ccccc1,inactive: 25.5%
19,CC(=O)NCCc1nc2ccccc2n1CCCCOc1ccc(Cl)cc1,inactive: -15%
20,CCOC(=O)c1cc(OC(=O)c2cccc(C)c2)n(-c2ccccc2)n1,inactive: 2.72%
21,COc1cccc(CNc2ncnc3onc(-c4ccc(F)cc4)c23)c1,inactive: 0.756%

row,SMILES,"activity change, negative = cytotoxicity"
1,CC(=O)Nc1nonc1-c1nnc(SCC(=O)Nc2cc(C)ccc2C)n1-c1ccccc1,inactive: -2.69%
2,COc1cccc2cc(-c3nc4sc(C(=O)Nc5ccc(F)cc5F)c(C)c4c(=O)[nH]3)c(=O)oc12,inactive: -2.21%
3,COCc1cc(C)nc2sc3c(=O)n(-c4cc(C)ccc4C)nnc3c12,inactive: 17%
4,CCOC(=O)c1ccccc1NC(=O)N1CCN2CCCCC2C1 (stereo unspecified),inactive: -2.18%
5,Cc1ccc(C)c(N2CCN(c3ncnc4onc(C)c34)CC2)c1,inactive: -4.42%
6,COCCNC(=O)CSc1nc(-c2ccc(F)cc2)[nH]c1-c1ccc(Cl)cc1,inactive: -0.798%
7,CC(CNC(=O)Cn1ncc2c3ccccc3n(Cc3cccc(Cl)c3)c2c1=O)c1ccccc1 (stereo unspecified),inactive: -23.8%
8,COc1ccc(OC)c(C2CC(=O)N(c3cccc(C)c3)C3=C2C(=O)OC3)c1 (stereo unspecified),inactive: 3.94%
9,Cc1cccc(CC(=O)NC2CC(=O)N(c3cccc(F)c3)C2)c1 (stereo unspecified),inactive: 4.69%
10,COc1ccc(OC)c(NC(=O)C2CCN(S(=O)(=O)c3ccc(C)cc3)CC2)c1,inactive: 3.85%
11,CC(C)CCNC(=O)C(=O)Nc1c2c(nn1-c1ccccc1)CS(=O)(=O)C2,inactive: -3.11%
12,COc1ccccc1N1CCN(S(=O)(=O)c2ccc(-c3cc(C(F)(F)F)on3)s2)CC1,inactive: -11.1%
13,CNS(=O)(=O)c1cn(CC(=O)Nc2ccc(OC)c(Cl)c2)cc1S(=O)(=O)NC,inactive: 16.1%
14,CN(C(=O)CSc1nc2ncccc2o1)c1ccc(F)cc1,inactive: 2.7%
15,CCCOc1ccc(-c2cccc(NS(=O)(=O)c3cc(OC)ccc3OC)c2)nn1,inactive: 3.95%
16,O=C(NCc1ccc(Cl)cc1)c1cnc2sc(N3CCCCCC3)nn2c1=O,inactive: 4.57%
17,COc1ccc(C(c2c(O)cc(C)n(Cc3ccco3)c2=O)N2CCN(c3ccccc3)CC2)cc1 (stereo unspecified),inactive: -8.65%
18,CCN(CC)c1ccc(NC(=O)c2cnn3c(C(F)F)cc(-c4ccccc4)nc23)cc1,inactive: -14.7%
19,O=C(CCC(=O)N1Cc2ccccc2Oc2ncccc21)NCc1ccccc1Cl,inactive: 4.87%
